# Source: PubChem BioAssay AID686978 (National Center for Advancing Translational Sciences (NCATS), 2013)
# Values joined by “and” are separate entries in the source; they are usually repeats but may differ in a detail not shown here. Identical values can stand only once. Among all 420,000 compounds or so, about 64,000 (15%) were called active. Inconclusive means that the source gave no clear call. Such entries were picked first, then a sample of the others. The call rests on the fitted dose curve; in most records, active means well fitted inhibition curve with a large enough effect; inconclusive means small, poorly fitted or top-dose-only effect; inactive means flat fitted curve, though single readings scatter. A potency beside an inconclusive call is a rough fit, not a confirmed value. The source holds several records for some structures; these can differ, active in one and inactive in another.
# Assay: qHTS for Inhibitors of human tyrosyl-DNA phosphodiesterase 1 (TDP1): qHTS in cells in absence of CPT; further: nearly all actives have a fitted effect of over 55% in size
# Conditions: DT40 Tdp1-/- hTDP1 cells, no CPT, ATP luminescence, 48 h; activity change, negative = growth inhibition: at 46.2 µM (top of the series) unless noted
# In short: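 Stably hTDP1-transfected Tdp1-null chicken DT40 cells were treated with library compounds minus camptothecin and grown for at least 48 hr at 37 °C, after which cellular ATP was quantified by luminescence.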
# On the % scale 0 is the no-effect control and ±100 the full control effect; potency means the concentration at half of the fitted maximal effect; tags describe the fitted curve by direction and shape.
SMILES,Potency,"activity change, negative = growth inhibition"
Cc1ncc(C[n+]2csc(CCOC(=O)CC34CC5CC(CC(C5)C3)C4)c2C)c(N)n1,"inconclusive: 29.1 µM [inhibitor, single point]",
O=C(/C=C/c1ccc(S(=O)(=O)N2CCOCC2)cc1)NC(=S)NCCCn1ccnc1,"inconclusive: 18.4 µM [inhibitor, single point]",
CCn1c(=O)cc(OCC(=O)NCCCN2CCC(C)CC2)c2ccccc21,inactive,
COC(=O)c1cc(=O)nc2sc(-c3cccs3)nn12,inactive,
COc1ccc(-c2nnc3ccc(SC(C(C)=O)C(C)=O)nn23)cc1OC,"inconclusive: 20.6 µM [inhibitor, partial curve]",
O=C(Nc1ccccc1C(=O)N1CCCC1)c1ccc(Cl)c([N+](=O)[O-])c1,"inconclusive: 23.1 µM [inhibitor, partial curve]",
COc1ccccc1Cn1c(=O)c2ccccc2n2c(SCC(=O)N3CCCCC3)nnc12,"inconclusive: 29.1 µM [inhibitor, single point]",
COc1cc2c(cc1NC(=O)CSc1ccc(Cl)cc1)oc1ccccc12,"inconclusive: 18.4 µM [inhibitor, partial curve]",
Cc1ccc2oc3c(c(=O)c2c1)C(c1ccc([N+](=O)[O-])cc1)N(CCCN1CCOCC1)C3=O (centres undefined),"inconclusive: 29.1 µM [inhibitor, single point]",
O=C(NC1CCN(Cc2ccccc2)CC1)c1ccccc1OCc1ccccc1,active: 7.31 µM,
CC(=O)N(O)CCCCCNC(=O)CCC(=O)N(O)CCCCCNC(=O)CCC(=O)N(O)CCCCCN,inactive and active: 14.6 µM and active: 11.6 µM,
Cc1cc(=O)oc2cc(OCC(=O)N3CCC(C(N)=O)CC3)ccc12,inactive,
COC(=O)N/N=C/c1cc(Cl)c(OCc2ccc(F)cc2)c(OC)c1,"inconclusive: 11.6 µM [inhibitor, partial curve]",
CCN(Cc1ccccc1)C(=O)Cn1c(=O)n(-c2cccc(C)c2)c(=O)c2c1c1cc(C)ccc1n2C,"inconclusive: 5.8 µM [inhibitor, single point]",
CN=C1S/C(=C\c2ccc(N3CCOCC3)cc2C)C(=O)N1C,"inconclusive: 18.4 µM [inhibitor, single point]",
Cc1csc(NC(=O)c2cc3c(s2)CCC3)n1,"inconclusive: 29.1 µM [inhibitor, single point]",
COc1ccc(-c2cc(C3CCN(CC(O)C(F)(F)F)CC3)[nH]n2)cc1 (centres undefined),"inconclusive: 32.6 µM [inhibitor, single point]",
Cc1cccc(N2C(=O)N3[C@@H]4c5ccccc5OC[C@@H]4[C@@H](c4ccccc4)[C@@]3(C)C2=O)c1,"inconclusive: 25.9 µM [inhibitor, partial curve]",
COC(=O)COc1ccc(S(=O)(=O)Nc2ccc(NC(C)=O)cc2)cc1,inactive,
Cc1ccc(OC(C)C(=O)Nc2cccc(S(=O)(=O)N3CCCCCC3)c2)cc1 (centres undefined),"inconclusive: 29.1 µM [inhibitor, single point]",
O=C(NC1CCCCCCC1)c1c(O)c2ccccc2[nH]c1=O,inactive,
COc1ccc(-c2oc3ccccc3c2C(=O)Oc2ccccc2)cc1,,inconclusive: -35.3% [inhibitor]
CC(C)(C)C(=O)Cn1c(=O)n(-c2ccccc2)c(=O)c2c3c(sc21)CCC3,active: 18.4 µM,

SMILES,Potency,"activity change, negative = growth inhibition"
c1ccc2c(-c3nnc4n3CCCCC4)c[nH]c2c1,inactive,
COc1cccc(-c2nnc(SC(C(=O)c3c[nH]c4ccccc34)c3ccccc3)n2C)c1 (centres undefined),"inconclusive: 29.1 µM [inhibitor, single point]",
Cc1cc(C)n(C(=O)CCNC(=O)c2ccccc2Cl)n1,inactive,
CCOc1ccc(NC(=O)c2ccccn2)cc1,active: 13 µM,
O=C(Cc1ccc(OCc2ccccc2)cc1)NCc1ccc2c(c1)OCO2,active: 7.31 µM,
CCOC(=O)c1c(C)[nH]c(C)c1S(=O)(=O)NCCc1cccs1,"inconclusive: 29.1 µM [inhibitor, single point]",
O=C(CN1C(=O)c2cccnc2Oc2ccc(Cl)cc21)NCCc1ccccc1,"inconclusive: 29.1 µM [inhibitor, single point] and inconclusive: 5.17 µM [inhibitor, full curve, poor fit]",
CCN(CC)CCCNc1ccc(-c2nnc(-c3ccc(OCC(C)C)cc3)o2)cn1,active: 2.91 µM,
O=C1C=C(Nc2cccc(Cl)c2)CC(c2ccco2)C1 (centres undefined),"inconclusive: 25.9 µM [inhibitor, single point]",
O=C(c1cc(COc2ccc(F)c(F)c2)on1)N1CCSCC1,inactive,
Cc1ccc(Cl)cc1NC(=S)N1CCC(c2ccccc2)C1 (centres undefined),,inconclusive: -31.8% [inhibitor]
Cc1cccc(NC(=S)N2CCn3cccc3C2c2cccnc2)c1 (centres undefined),"inconclusive: 20.6 µM [inhibitor, single point]",
COC(=O)c1sc(=S)n(-c2ccccc2)c1N,"inconclusive: 35.5 µM [inhibitor, single point]",
Cc1nn(-c2ccccc2)c2nc(-c3ccncc3)cc(C(=O)NCc3ccco3)c12,active: 18.4 µM,
COC(=O)c1cccc(NC(=O)NC23CC4CC(CC(C4)C2)C3)c1,"inconclusive: 20.6 µM [inhibitor, single point]",
COC(=O)c1ccccc1NC(=O)CSc1nc(Nc2ccccc2)nc(N2CCOCC2)n1,"inconclusive: 29.1 µM [inhibitor, single point]",
Cc1sc(NC(=O)c2ccco2)nc1-c1ccc2c(c1)CC(C)N2C(=O)C1CC1 (centres undefined),active: 3.55 µM,
C[C@@H]1CN([C@@H](C)CO)C(=O)CCCn2cc(nn2)CO[C@H]1CN(C)S(=O)(=O)c1cccs1,inactive,
COc1cccc(NCCC(=O)c2cccc([N+](=O)[O-])c2)c1,active: 14.6 µM,
C[C@H](O)C#Cc1ccc2c(c1)O[C@@H](CN(C)Cc1ccc(-c3ccccc3)cc1)[C@H](C)CN([C@@H](C)CO)S2(=O)=O,active: 3.66 µM,
O=S(=O)(c1ccc2c(c1)OCCO2)N1CCN(c2cccc(Cl)c2)CC1,,inconclusive: -36.2% [inhibitor]
CC(C)(C)c1ccc(OCC(=O)NNC(=S)NC(=O)c2ccccc2[N+](=O)[O-])c(Br)c1,active: 16.4 µM,
O=C(/C=C/c1ccccc1)Nc1cccc(C(=O)NCCCc2ccccc2)c1,"inconclusive: 20.6 µM [inhibitor, single point]",

SMILES,Potency,"activity change, negative = growth inhibition"
CC(=O)Nc1ccc(S(=O)(=O)NC2(C(F)(F)F)NC(=O)N(C3CCCCC3)C2=O)cc1 (centres undefined),inactive,
C=CCNC(=O)/C(=C/c1ccccc1OCC)NC(=O)c1ccccc1,inactive,
O=C(c1ccc(OCC2CCCO2)cc1)N1CCc2ccccc2C1 (centres undefined),"inconclusive: 29.1 µM [inhibitor, single point]",
Cc1cc(Nc2nc(Cl)c(Cl)cc2Cl)n(-c2ccccc2)n1,"inconclusive: 20.6 µM [inhibitor, single point]",
ClCCCc1cn(C[C@H]2CC[C@@H]([C@@H]3CC[C@H](Cn4cc(CCCCl)nn4)O3)O2)nn1,inactive,
CCCCNc1ccc(-c2nc(-c3ccco3)no2)cc1[N+](=O)[O-],"inconclusive: 7.31 µM [inhibitor, partial curve]",
COc1ccc(C(=O)NCc2cccnc2)cc1S(=O)(=O)N1CCCc2ccccc21,"inconclusive: 0.461 µM [inhibitor, full curve, poor fit]",
COc1ccc(-c2nc(-c3ccc(Br)o3)no2)cc1,inactive,
NS(=O)(=O)c1cc(C(=O)NCC2CCCCC2)ccc1Cl,"inconclusive: 11.6 µM [inhibitor, partial curve]",
COc1ccc(CCNC(=O)C(=O)Nc2ccc3nc4n(c(=O)c3c2)CCCCC4)cc1OC,"inconclusive: 16.4 µM [inhibitor, partial curve]",
CCC(CC)C(=O)Nc1ccc2nc(SCC(=O)N3CCc4ccccc43)sc2c1,active: 5.17 µM,
O=S(=O)(c1cccc2cnccc12)N1CCNCC1,"inconclusive: 29.9 µM [inhibitor, partial curve] and inconclusive: 29.1 µM [inhibitor, single point]",
COCCNC(=O)C1CCCN(C(=O)COc2ccc(Cl)cc2Cl)CC1 (centres undefined),inactive,
O=C(Nc1ccccc1Cl)c1ccc2c(c1)N(Cc1ccc(F)cc1)C(=O)CS2=O (centres undefined),"inconclusive: 11.6 µM [inhibitor, partial curve]",
CC(=O)c1cccc(NC(=O)C2CCCN(C(=O)c3cnn(-c4ccccc4)c3-n3cccc3)C2)c1 (centres undefined),"inconclusive: 25.9 µM [inhibitor, single point]",
CC1(C)C(c2cccs2)=[N+]([O-])C2(CCCCC2=O)N1O (centres undefined),inactive,
COc1ccc(-c2cc(-c3ccccc3)nc(Cl)n2)cc1OC,"inconclusive: 4.61 µM [inhibitor, single point]",
O=C(CSc1nc2ccccc2s1)NCCOc1ccc(Cl)cc1,,inconclusive: -31.8% [inhibitor]
O=C(Nc1ccc(N2CCN(C(=O)c3ccc(Cl)cc3)CC2)cc1)c1ccc2c(c1)OCCO2,active: 23.1 µM,
Cn1c2ccccc2c2cnn(CC(=O)N3CCN(c4cccc(C(F)(F)F)c4)CC3)c(=O)c21,inactive,
COc1ccc(/C=N/NC(=O)c2ccccc2O)cc1COc1ccccn1,inactive,
O=C(CSc1nnnn1C1CCCC1)c1ccc2c(c1)OCCO2,"inconclusive: 29.1 µM [inhibitor, single point]",
COc1ccc(C2Nc3cccc4cccc(c34)N2)cc1Br,"inconclusive: 14.6 µM [inhibitor, partial curve, poor fit]",
